According to article PMC4748275, “SpyRing interrogation: analyzing how enzyme resilience can be achieved with phytase and distinct cyclization chemistries” (Scientific Reports, 2016):

Tests used:
PhyC = PhyC (Bacillus subtilis, UniProt O31097); assay: colorimetric phosphate release (molybdate, OD700); type: biochemical; conditions: 1.6 mM phytic acid, 100 mM Tris-HCl pH 7.5, 1 mM CaCl2, 37 °C
SpyTag-PhyC-SpyCatcher = SpyTag-PhyC-SpyCatcher (Bacillus subtilis, UniProt O31097); assay: colorimetric phosphate release (molybdate, OD700); type: biochemical; conditions: 1.6 mM phytic acid, 100 mM Tris-HCl pH 7.5, 1 mM CaCl2, 37 °C
[1] = system: O=C(Cc1cccs1)N[C@@H]1C(=O)N2C(C(=O)O)=C(/C=C/c3ccc([N+](=O)[O-])cc3[N+](=O)[O-])CS[C@H]12; assay: purified protein; conditions: 50 mM NaH2PO4 pH 7.0, 0.1% BSA, 30 °C, 10-100 μM nitrocefin

| Compound | colorimetric phosphate release (molybdate, OD700) (PhyC) | colorimetric phosphate release (molybdate, OD700) (SpyTag-PhyC-SpyCatcher) | Km [1] | kcat [1] |
| --- | --- | --- | --- | --- |
| O=P(O)(O)O[C@H]1[C@H](OP(=O)(O)O)[C@@H](OP(=O)(O)O)[C@H](OP(=O)(O)O)[C@@H](OP(=O)(O)O)[C@H]1OP(=O)(O)O [phytic acid] | SpyTag-PhyC-SpyCatcher remained active, exhibiting comparable specific activity to PhyC | SpyTag-PhyC-SpyCatcher remained active, exhibiting comparable specific activity to PhyC | – | – |
| Pilin-C-BLA-Isopeptag (Escherichia coli) | – | – | 130 ± 4 µM | 1400 ± 40 s⁻¹ |
| SnoopTag-BLA-SnoopCatcher (Escherichia coli) | – | – | 150 ± 10 µM | 1700 ± 100 s⁻¹ |
| SpyTag-BLA-SpyCatcher (Escherichia coli) | – | – | 110 ± 6 µM | 910 ± 40 s⁻¹ |
